About 2,200 (0.71%) of roughly 310,000 compounds showed an effect of 50% or more. Effects have a minus sign here. Some of the results follow.

The target of this assay is human ether-à-go-go-related gene (hERG) potassium channel (human, UniProt Q12809). As to the kind of experiment: primary screen, population patch clamp on CHO cells stably expressing hERG.
Chain of human ether-à-go-go-related gene (hERG) potassium channel (Q12809 whole entry, looked up): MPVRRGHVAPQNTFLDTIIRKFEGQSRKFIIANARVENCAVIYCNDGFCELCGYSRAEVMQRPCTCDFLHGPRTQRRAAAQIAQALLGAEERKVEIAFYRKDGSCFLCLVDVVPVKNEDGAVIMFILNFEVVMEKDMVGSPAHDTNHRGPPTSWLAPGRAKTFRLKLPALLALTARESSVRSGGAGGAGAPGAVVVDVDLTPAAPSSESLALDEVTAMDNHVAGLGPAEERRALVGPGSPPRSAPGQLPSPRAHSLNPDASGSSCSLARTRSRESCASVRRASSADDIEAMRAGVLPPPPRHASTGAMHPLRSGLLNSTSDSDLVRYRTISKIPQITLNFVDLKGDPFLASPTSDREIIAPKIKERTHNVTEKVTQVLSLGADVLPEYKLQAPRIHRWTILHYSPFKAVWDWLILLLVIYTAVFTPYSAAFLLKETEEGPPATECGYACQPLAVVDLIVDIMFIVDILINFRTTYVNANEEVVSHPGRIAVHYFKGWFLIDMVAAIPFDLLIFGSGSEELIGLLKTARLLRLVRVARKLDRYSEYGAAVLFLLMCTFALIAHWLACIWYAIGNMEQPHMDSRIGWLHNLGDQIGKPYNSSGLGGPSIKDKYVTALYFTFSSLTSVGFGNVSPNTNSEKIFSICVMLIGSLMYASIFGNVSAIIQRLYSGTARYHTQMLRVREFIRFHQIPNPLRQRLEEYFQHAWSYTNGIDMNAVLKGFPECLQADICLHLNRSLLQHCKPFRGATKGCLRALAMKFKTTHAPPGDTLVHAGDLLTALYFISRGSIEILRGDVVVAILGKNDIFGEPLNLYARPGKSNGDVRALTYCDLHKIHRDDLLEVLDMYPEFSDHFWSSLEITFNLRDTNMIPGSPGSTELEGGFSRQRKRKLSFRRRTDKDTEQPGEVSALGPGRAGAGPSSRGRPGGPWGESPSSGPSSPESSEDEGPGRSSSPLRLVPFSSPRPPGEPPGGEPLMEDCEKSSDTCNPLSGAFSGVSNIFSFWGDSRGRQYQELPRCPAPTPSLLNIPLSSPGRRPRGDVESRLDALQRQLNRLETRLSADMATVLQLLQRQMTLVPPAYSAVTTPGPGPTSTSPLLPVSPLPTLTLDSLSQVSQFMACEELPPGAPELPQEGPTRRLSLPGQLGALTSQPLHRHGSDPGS
Take `COC(=O)C1=C(O)/C(=C\c2ccc(OCC(=O)Nc3ccccc3)cc2)N=C1C`: the “hERG current change (%, negative = inhibition) at 1uM” value amounted to 8.73%.
With `COc1ccc(OC)c(CN2CCCC(C(=O)c3sccc3C)C2)c1` (centres unmarked), the “hERG current change (%, negative = inhibition) at 1uM” value is -33%.
With `CCOc1ccc(Nc2cc(C)nc3c(C)cccc23)cc1`, the “hERG current change (%, negative = inhibition) at 1uM” value is on record as -14.9%.
Under `CN(C)CCNC(=O)c1ccccc1` stands -1.61%; under `Cc1ccc(CNC(=O)C2CCN(S(=O)(=O)c3cccs3)CC2)cc1`, 11.9%; under `CSc1ccc(C(=O)C2CCCN(C(=O)CCc3cnn(C)c3)C2)cc1` (centres unmarked), 3.11%.
Under `CCOC(=O)C(NC(C)=O)(Nc1ccc(S(=O)(=O)Nc2cc(C)nc(C)n2)cc1)C(F)(F)F` (centres unmarked) stands 12.5%.
With `Cc1c(C(=O)OCC(=O)N(C)CC(=O)Nc2ccc(F)cc2)oc2ccccc12`, the “hERG current change (%, negative = inhibition) at 1uM” value is on record as 11.7%.
Under `c1ccc(Cn2nnc3c(N4CCc5ccccc5C4)ncnc32)cc1` stands 1.44%; under `Cc1ccccc1OCc1nnc(SCC(=O)O)n1-c1cccc(Cl)c1`, 11.1%.
Consider `CCCc1cc(=O)oc2cc(C)cc(OC(C)C(=O)NCC3CCC(C(=O)O)CC3)c12` (centres unmarked), for which the “hERG current change (%, negative = inhibition) at 1uM” value is reported as 7.86%.
Under `CCC(C)NC(=O)CSc1nc2ccc(N3CCOCC3)cc2c(=O)n1CCc1ccccc1` (centres unmarked) stands 7.68%.
Under `O=C(NC(=S)Nc1c(Cl)ccc2nsnc12)c1ccco1` stands 22.9%; under `CC(=O)Nc1cccc(O)c1`, 18.4%.
Under `O=C(COc1ccc(S(=O)(=O)Nc2cccc(C(F)(F)F)c2)cc1)N1CCOCC1` stands 9.93%.
Consider `COc1cccc(S(=O)(=O)NCc2ccc(C(=O)NCC3CCCO3)cc2)c1` (centres unmarked), for which the “hERG current change (%, negative = inhibition) at 1uM” value is on record as 5.12%.
`O=C(N/N=C/c1ccc([N+](=O)[O-])o1)c1cc(-c2ccc(-c3ccccc3)cc2)nc2ccccc12`: the “hERG current change (%, negative = inhibition) at 1uM” value is on record as 14.8%.
Consider `CCc1ccc(NC(=O)CSc2n[nH]c(C)c2[N+](=O)[O-])cc1`, for which the “hERG current change (%, negative = inhibition) at 1uM” value is reported as 8.7%.
Under `CC#CCN1c2ccccc2[C@]23C[C@@H](C(=O)OC)N(C(=O)c4ccc(Br)cc4)C2=NC(C(=O)OC)=C(C(=O)OC)[C@H]13` stands 8.89%; under `C/C(=N\NC(=O)c1c([N+](=O)[O-])c(C)nn1C)c1ccc(NC(=O)c2ccc(C)o2)cc1`, 9.85%; under `N#C/C(=C/c1cn(-c2ccccc2)nc1-c1cccc(S(=O)(=O)N2CCOCC2)c1)C(=O)NCc1ccco1`, 8.12%.
Under `Cc1ccc(CN(C)C(=O)c2cc(COc3ccc(F)cc3Cl)on2)o1` stands 0.493%; under `COc1ccc(C(=O)N2CCCC(N3CCN(c4ccccc4F)CC3)C2)c(OC)n1` (centres unmarked), 11%.
Under `COc1cc(NC(=O)COC(=O)Cc2ccc(-c3ccccc3)cc2)cc(OC)c1` stands 17.4%.
On to `CN1CCN(C(=S)Nc2cccc(C(F)(F)F)c2)CC1`, for which the “hERG current change (%, negative = inhibition) at 1uM” value was found to be 11.6%.
Under `Cc1ccc(/C=C2\SC(=S)N(C3CCS(=O)(=O)C3)C2=O)o1` (centres unmarked) stands 4.32%; under `COc1ccccc1OCC(O)COC(N)=O` (centres unmarked), 10.7%.
As for `COc1ccc(/C=C2\Cc3ccccc3C2=O)cc1OC`, the “hERG current change (%, negative = inhibition) at 1uM” value is listed as 14.1%.
On to `Cc1ccc(CN2CCN(Cc3c[nH]c4ccccc34)CC2CCO)o1` (centres unmarked), for which the “hERG current change (%, negative = inhibition) at 1uM” value amounted to 5.35%.
Under `N#CCc1ccc(NS(=O)(=O)c2ccc(C3CCCCC3)cc2)cc1` stands 14.4%; under `COc1ccc(C(=O)NC(C)Cn2nc(C)cc2C)cc1OC1CCN(C(C)=O)CC1` (centres unmarked), 2.14%; under `CC(C)(C)OC(=O)N1CCC(NC(=O)c2nc[nH]c2C(=O)NCC(=O)OCc2ccccc2)CC1`, 3.61%.
As for `Cc1nn(Cc2ccccc2Cl)c(C)c1NC(=O)/C=C/c1cnn(C)c1`, the “hERG current change (%, negative = inhibition) at 1uM” value came to 11.2%.
Under `Fc1cccc(F)c1-c1nc2c(s1)CCc1onc(-c3ccc(Br)cc3)c1-2` stands 24.3%; under `CN1CCN(C(=O)CN(c2cc(C(F)(F)F)ccc2Cl)S(C)(=O)=O)CC1`, 12.6%; under `Cc1ccc(-c2nnc(SCC(=O)N/N=C/c3ccc(C)s3)n2-c2ccccc2)cc1`, 0.479%.
Under `COC(=O)C(C)Oc1ccc2c3c(c(=O)oc2c1)CCCCC3` (centres unmarked) stands 10.5%; under `Cc1ccc(C(=O)Nc2ccc(C)c(S(=O)(=O)N3CCOCC3)c2)c(C)c1`, 1.15%; under `Cn1c(NCc2ccc(Cl)cc2)nc2ccccc21`, 1.92%.
Under `COc1ccc(C(=O)Nc2c(N)nc[nH]c2=O)cc1` stands 3.41%.
As for `CCOC(=O)c1cc(-c2cccnc2)nn1-c1ccccc1`, the “hERG current change (%, negative = inhibition) at 1uM” value is listed as 9.32%.
Under `CCOc1ccc(NC(=O)CC2C(=O)N(c3ccc(OC)cc3)C(=O)N2CCc2cccs2)cc1` (centres unmarked) stands -19.1%; under `O=C1CC(C(=O)N2CCc3ccccc32)CN1c1ccccc1` (centres unmarked), 15.2%.
Regarding `CCOC(=O)C1CCCN(S(=O)(=O)c2ccc(Br)c(OC)c2)C1` (centres unmarked), the “hERG current change (%, negative = inhibition) at 1uM” value was 8.42%.

These data come from paper PMC4336329 (PLoS ONE, 2015).
